# Laboratory results: PubChem BioAssay AID686979 (National Center for Advancing Translational Sciences (NCATS), 2013)
# Out of some 420,000 compounds screened, about 50,000 (12%) were called active. The inconclusive results got no clear call from the source; some entries with a clear call stand among them for comparison. The call rests on the fitted dose curve; in most records, active means well fitted inhibition curve with a large enough effect; inconclusive means small, poorly fitted or top-dose-only effect; inactive means flat fitted curve, though single readings scatter. Potencies of inconclusive entries are left out as doubtful fits.
# Assay: qHTS for Inhibitors of human tyrosyl-DNA phosphodiesterase 1 (TDP1): qHTS in cells in presence of CPT; further: nearly all actives have a fitted effect of over 55% in size
# Details: chicken DT40 Tdp1-/-;hTDP1 cells + 20 nM CPT, ATP luminescence, 48 h; activity change, negative = growth inhibition: at 46.2 µM (top of the series) unless noted
# Summary of the method: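 Cell growth measured by CellTiter-Glo luminescence after a minimum 48 h, 37 C compound exposure with 20 nM CPT in Tdp1-knockout DT40 cells stably expressing hTDP1, seeded 400/well; qHTS titration format.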
# On the % scale 0 is the no-effect control and ±100 the full control effect; potency means the concentration at half of the fitted maximal effect; tags describe the fitted curve by direction and shape.
Compound,Potency,"activity change, negative = growth inhibition"
CCOc1ccc(NC(=O)C2CCN(S(=O)(=O)c3c(C)noc3/C=C/c3cccs3)CC2)cc1,"inconclusive [inhibitor, single point]",–
Cc1cc2nc(-c3ccc(C#N)cc3)c(Cc3ccsc3)n2c(C)c1Br,active: 16.4 µM,–
CCCCCCC1CCC(C(=O)N2CCOCC2)CC1 (stereo not given),"inconclusive [inhibitor, single point]",–
COc1ccc(C(c2nnnn2C2CCCC2)N2CCC(C)CC2)cc1 (stereo not given),"inconclusive [inhibitor, partial curve, poor fit]",–
O=[N+]([O-])c1cc2c(c([N+](=O)[O-])c1)Nc1ccccc1O2,active: 11.6 µM,–
Cc1[nH]n(-c2ccc([N+](=O)[O-])cc2)c(=O)c1/C=N/N1CCOCC1,active: 11.6 µM,–
CCCN(CC(=O)Nc1ccccc1C)C(=O)c1ccc(-c2ccc(C(C)=O)cc2)o1,"inconclusive [inhibitor, partial curve]",–
CCOC(=O)c1c(-c2ccccc2)csc1NC(=O)c1cc(-c2ccccc2OC)on1,"inconclusive [inhibitor, single point]",–
Cc1onc(-c2c(F)cccc2Cl)c1C(=O)OCC(=O)NCc1ccco1,"inconclusive [inhibitor, single point]",–
Cc1occc1C(=O)N1CCN(c2ccc([N+](=O)[O-])cc2)CC1,"inconclusive [inhibitor, single point]",–
COc1ccc(C(=O)Nc2ccc3oc(-c4ccc5ccccc5c4)nc3c2)cc1Br,active: 18.4 µM,–
NS(=O)(=O)c1ccc(CCNC(=O)c2cnc(Cl)c(Cl)c2)cc1,–,inactive: -12.8%
CCOc1ccc(-c2nnc(SCC(=O)c3ccccc3)n2-c2ccccc2)cc1,"inconclusive [inhibitor, full curve]",–
CCOc1ccc2nc(N3CCCC(C(=O)NCCCN4CCCCC4)C3)sc2c1 (stereo not given),"inconclusive [inhibitor, single point]",–
CN(C)c1ccc(/C=C/c2cncc3ccccc23)cc1,"inconclusive [inhibitor, single point]",–
O=c1cc(-c2ccccc2)nc2cc(-c3ccc(Br)cc3)[nH]n12,"inconclusive [inhibitor, partial curve, poor fit]",–
CC(=NO)c1ccc2c(c1)Cc1cc([N+](=O)[O-])ccc1-2,"inconclusive [inhibitor, single point]",–
O=C(C[n+]1ccc(Cc2ccccc2)cc1)Nc1ccccc1,"inconclusive [inhibitor, single point]",–
Cc1cccc(C)c1NC(=O)Cn1c(SCC(=O)NCc2ccccc2)nc2ccccc21,–,inconclusive: -34.3% [inhibitor]
Cc1ccc(NC(=O)c2ncoc2-c2ccco2)cc1Cl,"inconclusive [inhibitor, single point]",–
O=S(=O)(c1ccc(N2CCN(CCO)CC2)nc1)N1CCCCC1,–,inactive: 4.8%
CCn1c(=O)c(C(=O)CN2CCN(S(=O)(=O)c3ccc(C)cc3C)CC2)c(N)n(Cc2ccccc2)c1=O,"inconclusive [inhibitor, single point]",–
CC(=O)Nc1nc(=S)ss1,–,inactive: -27.8%
CN(C)c1nc(-c2ccoc2)nc2ccccc12,–,inactive: -14%

Compound,Potency,"activity change, negative = growth inhibition"
CCn1cc(C(=O)Nc2ccc(OC)c(OC)c2)c2cc(OC)c(OC)cc2c1=O,"inconclusive [inhibitor, partial curve, poor fit]",–
O=S(=O)(Nc1cccnc1)c1cccnc1,–,inactive: -0.938%
O=C1NC(=Nc2ccc(Cl)cc2)SC1Cc1cccc(Cl)c1Cl (stereo not given),"inconclusive [inhibitor, partial curve]",–
Cn1nccc1C(=O)NC1CC(C)(C)Cc2c1cnn2-c1ccc(F)cc1 (stereo not given),"inconclusive [inhibitor, partial curve]",–
CCN(CCCNC(=O)CN(C)S(=O)(=O)c1cccc2nsnc12)c1ccccc1,"inconclusive [inhibitor, partial curve]",–
CCCC[C@@H]1C[C@H]1[C@@H](NC(=O)c1cccs1)c1ccc(C(F)(F)F)cc1,"inconclusive [inhibitor, single point]",–
CCOC(=O)C1CCN(C(=O)c2c(-c3ccccc3)noc2C)CC1,–,inactive: 13.4%
Cc1noc(C)c1C(=O)N(C)CC(=O)Nc1ccc(F)c(F)c1F,–,inactive: -3.07%
CCOC(=O)[C@]12CCCC=C1N(CCC1=CCCCC1)C(=O)[C@H](CC(=O)NCc1cccc3ccccc13)C2,"inconclusive [inhibitor, single point]",–
CCOc1nc(-c2ccccc2)ccc1-c1noc(-c2cccnc2)n1,–,inactive: -14.3%
CN(Cc1ccccc1)c1ccc(S(=O)(=O)N2CCC(C(=O)O)CC2)cc1[N+](=O)[O-],–,inactive: 2.53%
COC(=O)c1ccc2c(C)c(C3(O)CCCCC3)[nH]c2c1,"inconclusive [inhibitor, single point]",–
CCCCn1c(NC(=O)c2ccco2)c(S(=O)(=O)c2ccc(C)cc2)c2nc3ccccc3nc21,"inconclusive [inhibitor, single point]",–
CCCN(CCC)C(=O)c1ccc2c(c1)N(Cc1ccccc1)C(=O)CS2=O (stereo not given),"inconclusive [inhibitor, single point]",–
CCCCn1c(N)c(N(CC(C)C)C(=O)CSc2n[nH]c(-c3ccc(C)cc3)n2)c(=O)[nH]c1=O,–,inactive: -21%
Cc1ccsc1C1C=C(c2cccc(Br)c2)Nc2ncnn21 (stereo not given),"inconclusive [inhibitor, single point]",–
CC(C)CCNC(=O)c1ccc2c(c1)N(Cc1ccccc1F)C(=O)c1ccccc1S2(=O)=O,"inconclusive [inhibitor, partial curve, poor fit]",–
COC(=O)CCCC[C@@H]1O[C@H](CCc2ccccc2)Cc2[nH][nH]c(=O)c21,–,inactive: -18%
CCN(CC)C(=O)CSc1nc2cc3c(cc2c(=O)n1Cc1ccc(OC)cc1)OCO3,active: 23.1 µM,–
Cc1cc(Cn2nc(-c3ccccc3)cc2C(=O)NCc2cccc(C(F)(F)F)c2)on1,"inconclusive [inhibitor, single point]",–
COc1ccc(CCNC(=O)c2cc(-c3ccccc3OC)on2)cc1OC,"inconclusive [inhibitor, single point]",–
O=C(Nc1nccs1)C(c1ccccc1)N1CCCCC1 (stereo not given),–,inactive: 0.962%
Fc1cccc(Cl)c1CNCCSc1nnnn1-c1ccccc1,"inconclusive [inhibitor, single point]",–
CC1=C(C(=O)N(C(C)C)C(C)C)CC(CC(=O)NCc2cccs2)C(=O)N1Cc1ccc(F)cc1 (stereo not given),"inconclusive [inhibitor, single point]",–

Compound,Potency,"activity change, negative = growth inhibition"
Cc1ccc(NS(=O)(=O)c2cccs2)nc1,–,inactive: -7.43%
CCN(CC(=O)Nc1c(F)cccc1F)C(=O)CNC(=O)c1cccs1,–,inactive: -0.0042%
C(=N\Nc1nc(Nc2ccccc2)nc(Nc2ccccc2)n1)/c1ccncc1,"inconclusive [inhibitor, single point]",–
O=C(CN(c1cccc(Br)c1)S(=O)(=O)c1ccccc1)N/N=C/c1cc([N+](=O)[O-])ccc1O,"inconclusive [inhibitor, single point]",–
CC(C)NC(=O)c1cc2c(=O)n3ccccc3nc2s1,–,inactive: -1.4%
COC(=O)c1ccccc1NC(=O)NCc1ccncc1,"inconclusive [inhibitor, single point]",–
C/C(=N\NC(=O)C1CC1)c1ccc(OC(F)F)cc1OC(F)F,–,inactive: -5.24%
CC(OC(=O)/C=C/c1cccs1)C(=O)Nc1ccc(C(N)=O)cc1 (stereo not given),"inconclusive [inhibitor, single point]",–
COc1ccc(C2=NN(C(=O)c3ccc(Cl)c([N+](=O)[O-])c3)C(c3ccccc3)C2)cc1 (stereo not given),"inconclusive [inhibitor, single point]",–
Cc1c(/C(O)=C2\C(=O)C(=O)N(CCN(C)C)C2c2cccs2)cnn1-c1ccccc1 (stereo not given),–,inactive: -7.84%
COc1cccc(C(=O)N(Cc2ccco2)c2ccccn2)c1,"inconclusive [inhibitor, partial curve]",–
COc1ccc(C#Cc2ccc3c(=O)c4ccccc4n(C)c3c2)cc1,"inconclusive [inhibitor, single point]",–
CCCn1c(=O)c(C(=O)N/N=C/c2ccc(F)cc2)c(O)c2ccccc21,active: 9.2 µM,–
Cc1cccc(C(=O)NC(=S)N(C)C2CCCCC2)c1,active: 29.1 µM,–
CCOC(=O)C1CCCN(Cc2nc3ccc([N+](=O)[O-])cc3c(=O)n2-c2ccc(OC)cc2OC)C1 (stereo not given),active: 16.4 µM,–
CC(c1cccs1)N(C(=O)Nc1ccccc1)C1CCCCC1 (stereo not given),active: 15.8 µM,–
COc1ccc(Cn2c(/C=C/c3ccccc3)nc3ccccc32)cc1,"inconclusive [inhibitor, partial curve]",–
COc1ccc(NC(=S)NC2CC3CCCC(C2)N3C2CC2)cc1 (stereo not given),"inconclusive [inhibitor, single point]",–
NC(CSCSCC(N)C(=O)O)C(=O)O (stereo not given),–,inactive: -1.1%
CCC[C@@H]1CCCC/C=C\CCCC(=O)OCCN1C(=O)OC(C)(C)C,"inconclusive [inhibitor, single point]",–
COc1ccc(-c2oc(=O)c3cc(OC)c(OC)cc3c2-c2cc(F)cc(OC)c2)cc1,"inconclusive [inhibitor, single point]",–
CC(C)c1cc(C(=O)N/N=C/c2c[nH]c3ccccc23)n[nH]1,"inconclusive [inhibitor, single point]",–
